Measurements from publication PMC5636987.
These are yes or no findings as the source states them, for the method shown. In cells and extracts the contact can be indirect. Some results given as binding are weak or reduced against the parent protein; the word gives no strength. Sequences can lack the tags named with a protein. Each block holds one binder with its values, some of them ahead of it.

How the values were obtained:
[1] = biological target: T1, GST tagged TAK1 (full-length) (human (from the RefSeq entry)) (UniProt O43318); assay: pull-down; GST-tagged and Flag- or HA-tagged proteins co-expressed in COS-7 cells; lysates (20 mM Tris pH 7.4, 150 mM NaCl, 0.5% Triton X-100) incubated with glutathione sepharose beads at 4 °C; washed three times with 250 mM NaCl, 0.5% Triton X-100; Western blot
T1 sequence: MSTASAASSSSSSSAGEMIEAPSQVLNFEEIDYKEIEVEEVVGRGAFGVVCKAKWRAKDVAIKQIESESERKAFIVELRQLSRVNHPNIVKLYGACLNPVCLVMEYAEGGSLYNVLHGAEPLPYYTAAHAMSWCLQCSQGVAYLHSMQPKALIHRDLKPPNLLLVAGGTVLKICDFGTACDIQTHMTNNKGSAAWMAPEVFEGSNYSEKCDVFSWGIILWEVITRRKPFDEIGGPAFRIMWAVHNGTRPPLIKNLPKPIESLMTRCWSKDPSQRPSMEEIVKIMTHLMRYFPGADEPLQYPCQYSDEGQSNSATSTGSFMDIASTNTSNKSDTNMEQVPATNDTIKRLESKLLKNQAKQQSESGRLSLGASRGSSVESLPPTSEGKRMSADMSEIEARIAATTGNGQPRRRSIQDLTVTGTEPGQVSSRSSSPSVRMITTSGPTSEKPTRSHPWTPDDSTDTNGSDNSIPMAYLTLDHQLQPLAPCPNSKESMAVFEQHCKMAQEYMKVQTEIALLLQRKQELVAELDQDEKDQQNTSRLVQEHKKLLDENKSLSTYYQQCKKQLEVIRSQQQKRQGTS

[2] = biological target: T2, GST-POPX2 (UniProt P49593); assay: as above
T2 sequence: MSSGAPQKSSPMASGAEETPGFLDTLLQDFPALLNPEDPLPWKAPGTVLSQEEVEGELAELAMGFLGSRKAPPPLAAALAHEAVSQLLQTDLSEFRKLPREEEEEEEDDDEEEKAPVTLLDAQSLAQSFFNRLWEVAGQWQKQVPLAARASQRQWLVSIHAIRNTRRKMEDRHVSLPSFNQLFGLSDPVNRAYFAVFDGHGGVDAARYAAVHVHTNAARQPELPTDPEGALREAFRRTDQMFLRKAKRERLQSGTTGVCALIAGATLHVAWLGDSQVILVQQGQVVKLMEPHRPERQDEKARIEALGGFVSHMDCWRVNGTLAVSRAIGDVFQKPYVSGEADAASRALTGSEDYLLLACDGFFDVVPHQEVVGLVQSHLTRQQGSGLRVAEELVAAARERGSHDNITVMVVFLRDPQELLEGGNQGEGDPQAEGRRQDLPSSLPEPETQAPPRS

binding [1]: binds
B1: Flag-POPX2 (enzyme, UniProt P49593 1-454)
chain: T2 sequence

binding [2]: no binding
B2: Flag-TAB1 (protein, UniProt Q15750-1 1-504)
chain: MAAQRRSLLQSEQQPSWTDDLPLCHLSGVGSASNRSYSADGKGTESHPPEDSWLKFRSENNCFLYGVFNGYDGNRVTNFVAQRLSAELLLGQLNAEHAEADVRRVLLQAFDVVERSFLESIDDALAEKASLQSQLPEGVPQHQLPPQYQKILERLKTLEREISGGAMAVVAVLLNNKLYVANVGTNRALLCKSTVDGLQVTQLNVDHTTENEDELFRLSQLGLDAGKIKQVGIICGQESTRRIGDYKVKYGYTDIDLLSAAKSKPIIAEPEIHGAQPLDGVTGFLVLMSEGLYKALEAAHGPGQANQEIAAMIDTEFAKQTSLDAVAQAVVDRVKRIHSDTFASGGERARFCPRHEDMTLLVRNFGYPLGEMSQPTPSPAPAAGGRVYPVSVPYSSAQSTSKTSVTLSLVMPSQGQMVNGAHSASTLDEATPTLTNQSPTLTLQSTNTHTQSSSSSSDGGLFRSRPAHSLPPGEDGRVEPYVDFAEFYRLWSVDHGEQSVVTAP
